# From PubChem BioAssay AID504832 (National Center for Advancing Translational Sciences (NCATS), 2011)
# Out of some 310,000 compounds screened, about 18,000 (5.8%) were called active. The shares of active, inactive and inconclusive entries below differ from those in the screen. Calls follow the shape of the dose curve; as a rule, active = well fitted inhibition curve with a large enough effect; inconclusive = small, poorly fitted or top-dose-only effect, or another doubt; inactive = no such curve, though single readings can be large or run the other way. Potencies of inconclusive entries are left out as doubtful fits.
# Assay: Primary qHTS for delayed death inhibitors of the malarial parasite plastid, 48 hour incubation
# Conditions: P. falciparum luciferase growth in erythrocytes; series mostly up to 28.7 µM; activity change, negative = inhibition: at the top concentration
# Outline: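 In quantitative HTS format, infected erythrocytes bearing luciferase-reporter parasites were treated for a single generation at 37 C. Luminescence after adding detection reagent served as the growth measure.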
# % is scaled to controls: 0 for no effect and ±100 for the full control effect; potency is read from the fitted curve at half-maximal effect; tags tell the direction and shape of the fitted curve.
SMILES,Potency,"activity change, negative = inhibition"
Cc1nc(N2CCN(S(=O)(=O)c3ccc(F)cc3)CC2)c2c(-c3cccs3)csc2n1,"inconclusive [inhibitor, partial curve, poor fit]",–
O=C(CCCCCn1c(=S)[nH]c2ccc(N3CCOCC3)cc2c1=O)NC1CCN(Cc2ccccc2)CC1,"inconclusive [inhibitor, partial curve, poor fit]",–
O=C(CC1SC(=Nc2ccccc2)N(CCc2ccccn2)C1=O)Nc1ccc(F)cc1 (configuration not stated),"inconclusive [inhibitor, partial curve, poor fit]",–
COCCN1Cc2cc(=O)n3c([nH]c4ccccc43)c2C1=N,"inconclusive [inhibitor, single point]",–
O=C(CN1C(=O)S/C(=C\c2ccc(F)cc2)C1=O)Nc1cccc(S(=O)(=O)NCc2ccco2)c1,"inconclusive [inhibitor, single point]",–
CN(C)S(=O)(=O)c1cccc(NC(=O)COc2ccc(C(=O)c3ccccc3)cc2)c1,"inconclusive [inhibitor, single point]",–
CCN(CC)c1ccc(/C=N/N2C(=O)c3ccccc3C2=O)c(O)c1,–,inactive: 24.3%
COC(=O)C1=C(C)N(CCc2ccc(OC)c(OC)c2)C(=O)/C1=C\N(C)C,"inconclusive [inhibitor, single point]",–
Cc1cccc(NC(=O)COc2cccc3c2CCN(C)C3=O)c1C,"inconclusive [inhibitor, full curve, poor fit]",–
CCOC(=O)c1c(NC(=O)c2ccc(-n3cnnn3)cc2)sc2c1CCCC2,"inconclusive [inhibitor, partial curve]",–
Cc1n[nH]c(C)c1CN(C)C(=O)C1CCC(=O)N(CC2CCCCC2)C1 (configuration not stated),"inconclusive [inhibitor, partial curve]",–
O=C(CNC(=O)C1COc2ccccc2O1)Nc1cc(Cl)ccc1Cl (configuration not stated),"inconclusive [inhibitor, partial curve, poor fit]",–
Cc1cc2c(c(=O)o1)C1O[C@](c3ccsc3)(Cc3ccccc31)O2,active: 1.9 µM,–
N/C(=N\OC(=O)c1ccc2ccccc2c1)c1ccncc1,"inconclusive [inhibitor, single point]",–
O=C(NCCOc1ccccc1)c1cc([N+](=O)[O-])ccc1N1CCOCC1,"inconclusive [inhibitor, single point]",–
Cc1ccc(NC(=S)N(CCN2CCOCC2)Cc2cc3cc4c(cc3[nH]c2=O)OCO4)cc1,"inconclusive [inhibitor, partial curve]",–
Cc1[nH]nc(N=CC2=C(O)CC(c3ccco3)CC2=O)c1-c1ccc(Cl)cc1 (configuration not stated),"inconclusive [inhibitor, partial curve, poor fit]",–
N#Cc1ccc(-c2csc(NC(=O)c3ccc(S(=O)(=O)N4CCc5ccccc5C4)cc3)n2)cc1,–,inactive: 20.6%
CCCCOc1ccc(C(=O)NCc2ccco2)cc1,"inconclusive [inhibitor, full curve]",–
COc1cc(CNc2cccc3[nH]c(C(F)(F)F)nc23)cc(OC)c1,active: 2.08 µM,–
CCNC(=O)NC(=O)C(C)Sc1nc2ccccc2n1CC(C)C (configuration not stated),"inconclusive [inhibitor, single point]",–

SMILES,Potency,"activity change, negative = inhibition"
CC(C)(C)n1nc2c(c1NC(=O)COc1ccc(Cl)cc1)CSC2,"inconclusive [inhibitor, partial curve]",–
Cn1c2ccccc2c2cc(/C=N/NC(=O)c3cc(O)cc(O)c3)ccc21,"inconclusive [inhibitor, single point]",–
COc1ccc(S(=O)(=O)N2CCCCCC2)cc1C(=O)N(C)CC(=O)Nc1c(Cl)cccc1Cl,"inconclusive [inhibitor, single point]",–
CC(C)n1nnnc1SCC(=O)NCCc1ccccc1,–,inactive: 66.8%
CC1(C)Cc2ccccc2C2=NNC(=O)C2=N1,"inconclusive [inhibitor, full curve]",–
COc1ccc(CNC(=O)CCCn2ccc3cc(S(=O)(=O)N4CCCC4)ccc32)cc1,"inconclusive [inhibitor, partial curve]",–
CCc1nc2c(c(=O)c3ccccc3n2C)c(=O)n1C1CCCCCC1,"inconclusive [inhibitor, single point]",–
CCN(CC)S(=O)(=O)c1cc(NC(=O)c2ccc(Br)s2)ccc1C,"inconclusive [inhibitor, single point]",–
COc1ccc2c(c1)c1ncn(CCc3ccccc3)c(=O)c1n2C,"inconclusive [inhibitor, single point]",–
COc1cccc(NC(=O)CN2C(=O)CSc3ccc(S(=O)(=O)N4CCCCC4)cc32)c1,"inconclusive [inhibitor, partial curve]",–
Cc1c(NP(=O)(C(C)(C)C)C(C)(C)C)c(=O)n(-c2ccccc2)n1C,–,inactive: 14.7%
COc1ccc(OCCSc2nc(C)nc3ccccc23)cc1,"inconclusive [inhibitor, single point]",–
CCOC(=O)N1CCN(Cc2nc(N)nc(Nc3ccc(Cl)cc3)n2)CC1,–,inactive: 7.43%
Cc1ccccc1CN1CCC(Oc2ccc(C(=O)NCc3ccccn3)cc2)CC1,"inconclusive [inhibitor, partial curve]",–
CCCCn1c(N)c(N(CC(C)C)C(=O)CN2C(=O)NC3(CC(C)CC(C)(C)C3)C2=O)c(=O)[nH]c1=O (configuration not stated),"inconclusive [inhibitor, partial curve]",–
O=C(O)Cc1nc(-c2cccnc2)sc1-c1ccc(Br)cc1,"inconclusive [inhibitor, single point]",–
CCOC(=O)C(O)(CC(=O)c1ccc(Cl)cc1)C(=O)OCC,"inconclusive [inhibitor, full curve, poor fit]",–
CC(=O)Nc1ccc(S(=O)(=O)/N=C2\SCCN2S(=O)(=O)c2ccc(NC(C)=O)cc2)cc1,"inconclusive [inhibitor, single point]",–
COc1ccccc1-c1noc(Cn2cc(S(=O)(=O)N3CCCC3)ccc2=O)n1,"inconclusive [inhibitor, partial curve, poor fit]",–
O=C(NC1CCSc2ccccc21)c1cccc(OC(F)F)c1 (configuration not stated),"inconclusive [inhibitor, partial curve]",–
C=CCNC1=C(Cl)C(=O)c2ccccc2C1=O,active: 2.94 µM,–

SMILES,Potency,"activity change, negative = inhibition"
Cc1ccc(C23CC4CC(CC(C(=O)NC(C(=O)O)C(C)C)(C4)C2)C3)cc1 (configuration not stated),"inconclusive [inhibitor, single point]",–
CSc1nc(-c2ccco2)nn1C(=O)c1ccccc1,"inconclusive [inhibitor, full curve, poor fit]",–
O=S(=O)(/N=C(/Nc1ccccc1)c1ccccc1O)c1ccccc1,"inconclusive [inhibitor, single point]",–
CC[C@@H](C)[C@@H](C(=O)N1CCN(C(=O)OC(C)(C)C)CC1)n1cc(CCCCNC(=O)OC(C)(C)C)nn1,"inconclusive [inhibitor, partial curve, poor fit]",–
COc1ccc([C@H]2CC(=O)C=C(c3ccccc3-c3ccccc3)C2)cc1,"inconclusive [inhibitor, single point]",–
CC1(C)C(C=C(Cl)Cl)C1C(=O)Nc1ccc([N+](=O)[O-])cc1 (configuration not stated),"inconclusive [inhibitor, single point]",–
O=[N+]([O-])c1ccccc1S(=O)(=O)N1CCN(Cc2ccsc2)CC1,–,inactive: -19.2%
COc1ccc(/C=C2/SC(c3ccc(C)cc3)=NC2=O)cc1OC,"inconclusive [inhibitor, full curve, poor fit]",–
N#Cc1c(-c2ccccc2)c(-c2ccccc2)n(Cc2ccco2)c1NC(=O)c1cccs1,"inconclusive [inhibitor, partial curve, poor fit]",–
O=C(Nc1ccccc1)OC1CCC2CC1CCC2OC(=O)Nc1ccccc1 (configuration not stated),"inconclusive [inhibitor, partial curve]",–
COc1ccc(OCc2nnc(SCC(=O)Nc3nnc(C4CC4)s3)n2C)cc1,–,inactive: -9.2%
O=C(Oc1ccc(F)cc1C(=O)/C=C/c1cccs1)c1cccc([N+](=O)[O-])c1,"inconclusive [inhibitor, single point]",–
CO/N=C/C(C#N)=C/c1ccc(OC)c(OC)c1,–,inactive: -16.9%
Cc1ccccc1C1c2[nH]c3ccccc3c2C[C@H]2C(=O)N(c3ccccc3C(=O)NCCN3CCOCC3)C(=O)N12 (some centres not stated),"inconclusive [inhibitor, single point]",–
O=C(CCNC(=O)c1ccc([N+](=O)[O-])cc1)Nc1ccc(N2CCOCC2)cc1N1CCOCC1,–,inactive: 5.88%
CCCCc1[nH]nc2c1C1(C(=O)N(CC)c3ccccc31)C(C#N)=C(N)O2 (configuration not stated),"inconclusive [inhibitor, partial curve, poor fit]",–
C=CCOc1ccc(CNc2ccc(NC(=O)CCC)cc2)cc1OCC,active: 14.7 µM,–
COc1ccc(OCC(=O)Nc2cc(S(=O)(=O)N3CCCC3)ccc2OCC(F)(F)F)cc1,"inconclusive [inhibitor, partial curve]",–
Cc1ccc(-c2nc(S(=O)(=O)c3ccc(C)cc3)c(SCC(=O)NCC3CCCO3)o2)cc1 (configuration not stated),"inconclusive [inhibitor, partial curve]",–
CN1CCN(c2nc(NCCOC34CC5CC(CC(C5)C3)C4)nc(OCC(F)(F)F)n2)CC1,"inconclusive [inhibitor, single point]",–
